Measurements reported in paper PMC6919601, “Identification of Plasmodium dipeptidyl aminopeptidase allosteric inhibitors by high throughput screening” (PLoS ONE, 2019).
The whole screen tested about 110,000 compounds, of which about 230 (0.21%) showed an effect of 50% or more. This is one part of the list.

Each compound was assayed against DPAP1 (Plasmodium falciparum, UniProt Q8IIJ9) (assay: primary screen, percent inhibition; read by cleavage of a fluorogenic dipeptide substrate; higher = more effect of the substance).
Parameters: species or system P. falciparum D10 trophozoite lysates; single well
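Also: 30 min substrate incubation versus DMSO and 10 µM JCP410 controls.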

Chain of DPAP1 (Q8IIJ9 whole entry, looked up): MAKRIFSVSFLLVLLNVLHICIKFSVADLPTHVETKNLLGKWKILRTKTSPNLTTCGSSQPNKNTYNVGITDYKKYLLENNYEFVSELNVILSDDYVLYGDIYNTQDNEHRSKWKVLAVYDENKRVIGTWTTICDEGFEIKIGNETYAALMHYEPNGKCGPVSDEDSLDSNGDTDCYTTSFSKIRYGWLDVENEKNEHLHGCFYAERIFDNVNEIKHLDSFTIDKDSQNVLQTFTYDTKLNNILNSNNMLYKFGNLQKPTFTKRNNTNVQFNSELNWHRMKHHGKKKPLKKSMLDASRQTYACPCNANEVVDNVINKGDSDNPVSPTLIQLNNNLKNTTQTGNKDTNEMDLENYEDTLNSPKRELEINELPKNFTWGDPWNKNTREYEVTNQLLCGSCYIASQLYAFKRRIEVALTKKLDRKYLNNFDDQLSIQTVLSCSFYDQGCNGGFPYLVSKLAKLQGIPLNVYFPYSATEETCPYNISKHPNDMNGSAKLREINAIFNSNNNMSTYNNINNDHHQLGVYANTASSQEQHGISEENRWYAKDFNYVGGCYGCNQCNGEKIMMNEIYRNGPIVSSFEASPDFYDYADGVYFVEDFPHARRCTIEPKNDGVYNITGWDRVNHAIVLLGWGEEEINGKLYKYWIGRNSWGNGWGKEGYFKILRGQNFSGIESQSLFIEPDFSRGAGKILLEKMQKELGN

SMILES	% Inhibition @ 10 uM [%]
CCOc1cc(CNCc2c(C(=O)O)c(C)n(Cc3ccc(C)cc3)c2C)cc(OCC)c1OCC	-5.49
O=C(c1sc2ccccc2c1Cl)N1CCSCC1	-3.26
Oc1[nH]c2ccccc2c1C1=NCCC1	-4.58
COc1cccc(S(=O)(=O)NCC(=O)N2CCCCC2)c1	5.15
Cc1cccc(C)c1OCCCCCN1CCN(C)CC1	7.67
C=CCOc1ccc(CNC(C)(C)CO)cc1OC	-2.74
Cc1nn(-c2ccccc2)c2c1C(c1c(F)cccc1F)C(C#N)=C(N)O2 (stereo not drawn)	-4.75
CC1CC(C)CN(CC(O)COCCC23CC4CC(CC(C4)C2)C3)C1 (stereo not drawn)	-6.38
COc1cc(C2=C/C(=C3/N=C(C)OC3=O)c3ccccc3O2)cc(OC)c1OC	-3.33
Cc1ccc(OCC(=O)Nc2ccc(Cl)cc2)c(C)c1	-2.76
O=C(Nc1ccncc1)c1cc2cc(Br)ccc2oc1=O	2.6
COc1cccc2c1OC(c1ccc(F)c(F)c1)N1N=C(c3cccnc3)CC21 (stereo not drawn)	1.88
Cc1ccc2nc(C)n3c4ccccc4c(NC(=O)c4ccccc4)c3c2c1	-6.87
CCc1nn(-c2cc(Oc3ccccc3)nc(C)n2)c(N)c1C#N	-5.48
COc1ccccc1C1=NN(S(C)(=O)=O)C(c2ccco2)C1 (stereo not drawn)	-3.34
Cc1ccc2[nH]c3c(c2c1)CCCC3NC=O (stereo not drawn)	3.47
CCOC(=O)c1c(S(=O)(=O)N(CC)Cc2ccccc2)c(C)n(C)c1C	5.34
O=C(NCCCNC(=O)c1cccc(Cl)c1)c1cccc(Cl)c1	3.67
O=C(O)CCNCCC(=O)c1ccccc1	-7.66
Cc1ccccc1CN1CCN(c2ccccc2F)CC1	0.317
C=CCOc1c(CNc2nc[nH]n2)cccc1OCC	2.02
COc1ccc(CN2CCCN(C)CC2)c(OC)c1C	-6.82

SMILES	% Inhibition @ 10 uM [%]
CC1Cc2cc(C(=O)C3=C(O)C(=O)N(CC4CCCO4)C3c3cccs3)ccc2O1 (stereo not drawn)	0.323
CC(C)COc1ccc(S(=O)(=O)N2CCOCC2)cc1	5.11
COc1ccccc1OCc1ccc(C(=O)N(C)C)o1	-1.33
O=C(c1cccc(Cl)c1)N1CCC(Cc2ccccc2)CC1	2.01
CCOC(=O)c1c(NC(=O)/C=C/c2ccc(OC)c(OC)c2)sc2c1CCCC2	23.6
COc1cccc(CNC(=O)C(C)n2nc(C)c3c(C)n(-c4ccccc4)nc3c2=O)c1OC (stereo not drawn)	-0.128
COc1ccc(OC)c(-n2cnc3cc(C(=O)NCCc4ccc(Cl)cc4)ccc32)c1	-3.78
O=C(Cn1cc2c(n1)CCCCC2)NC1CCN(Cc2ccccc2)CC1	-1.8
CC(C)C(NS(=O)(=O)c1cccs1)C(=O)N(C)Cc1ccccc1 (stereo not drawn)	-0.0175
CCC(C)(C(=O)NC1CCCCC1)N(C)C(C)=O (stereo not drawn)	1.26
CC1(C)CC2=NC3=C(C(=O)CC(C)(C)C3)C(c3cc(Cl)ccc3OCC(=O)O)C2=C(O)C1 (stereo not drawn)	-0.736
O=c1oc2c3c(ccc2c2c1CCC2)OCN(Cc1ccccc1)C3	2.65
CC(Sc1nnc2sc3ccccc3n12)C(=O)O (stereo not drawn)	0.415
Cc1ccc(NC(=O)c2c(NC(=O)CN3CCNCC3)sc3c2CCCC3)cc1	0.528
CCOC(=O)C1CCN(Cc2ccc([N+](=O)[O-])s2)CC1	3.05
Cc1ccc(C(=O)Nc2sc3c(c2C(N)=O)CCCCC3)cc1	3.67
CCOc1cc(-c2cc(N)n(S(=O)(=O)c3ccc(C)cc3)n2)cc(OCC)c1OCC	4.28
CCCn1cnc2c(oc3ccccc32)c1=O	-2.07
O=C(CSc1nc2nncc-2c(O)n1-c1ccccc1)Nc1nsc(-c2ccccc2)n1	0.778
CCCSC1=C(C#N)C2(CCCC2)C(C#N)=C(N)N1	6.15
COc1cccc(CN2CCN(c3ccccc3F)CC2)c1	-7.49
Cc1cc(F)ccc1NC(=O)c1cccc(OC(F)F)c1	-1.42

SMILES	% Inhibition @ 10 uM [%]
CCOCc1c(C)cc(C)c(C=C(C#N)C#N)c1C	-2.51
COc1cc(/C=C2/C(=N)N3C(=NC2=O)SN=C3S(C)(=O)=O)ccc1OCc1ccc(F)cc1	-3.39
COc1ccccc1C1C(C(=O)c2ccc3c(c2)CC(C)O3)=C(O)C(=O)N1Cc1cccnc1 (stereo not drawn)	-0.303
Cc1c(C(=O)NCCc2ccccc2)oc2ccc(S(=O)(=O)N3CCOCC3)cc12	-0.228
Cc1nc2ccccc2n1CCc1nc2c3ccccc3nc(NCCN3CCOCC3)n2n1	-3.85
O=C(c1cc(S(=O)(=O)N2CCOCC2)ccc1Cl)N1CCCc2ccccc21	0.673
CC1=CCC2C(=O)N(Cc3ccccc3)C(=O)C2C1 (stereo not drawn)	4.52
O=C1NC2(CCCCC2)N(C(=O)c2ccc(Cl)cc2)C2=C1CCCC2	-6.85
Cc1ccc(C(C)NC(=O)Cc2ccccc2)c(C)c1 (stereo not drawn)	0.219
Cc1ccc2nc3c(O)n(CC(=O)NCCCN4CCC(C)CC4)ncc-3c2c1	4.74
CCc1ccc(NCCC(=O)c2ccc(C)o2)cc1	-7.87
Cc1noc2ncnc(N3CCCCC3)c12	-4.02
COc1ccccc1Nc1nc(-c2cc(C)ccc2C)cs1	3.03
COc1ccc(C2c3c(n(C)c(=O)n(C)c3=O)N=C3c4ccccc4C(=O)C32)cc1 (stereo not drawn)	1.4
CCSC1=C(C#N)C(c2ccc(Cl)cc2Cl)CC(=O)N1 (stereo not drawn)	2.92
O=S(=O)(NCCO)c1ccc(N2CCC(c3ccc(Cl)cc3)=N2)cc1	17.2
c1ccc(C2CC(c3ccco3)n3ncnc3N2)cc1 (stereo not drawn)	0.146
CC12CN3CC(C)(CN(C1)C3c1ccccc1)C2O (stereo not drawn)	2.92
O=C(Cn1nc(Cc2ccncc2)c2ccccc2c1=O)N1CCC(N2CCCCC2)CC1	42.7
CCCNC(=O)CN(c1ccc(Cl)cc1C)S(C)(=O)=O	-0.564
Cc1ccc(NC(=O)C2CCCN(S(=O)(=O)c3ccc4nc(O)ccc4c3)C2)nc1 (stereo not drawn)	-6.16
COC(=O)c1c(NC(=O)/C=C/c2ccc(OC)cc2)sc2c1CCCCC2	-3.28
